Data reported in PubChem BioAssay AID1468 (National Center for Advancing Translational Sciences (NCATS), 2008).
In all, about 280,000 compounds went through this assay and about 1,100 (0.39%) were called active. This list was built around the results that the source calls inconclusive (neither active nor inactive); the mix of calls is not that of the screen. Calls follow the shape of the dose curve; as a rule, active = well fitted inhibition curve with a large enough effect; inconclusive = small, poorly fitted or top-dose-only effect, or effect the other way; inactive = flat fitted curve, though single readings scatter. Potencies of inconclusive entries are left out as doubtful fits.

molecular target: Microtubule-associated protein tau (Homo sapiens) (UniProt P10636); assay: qHTS for Inhibitors of Tau Fibril Formation, Fluorescence Polarization; conditions: K18 P301L tau heparin fibrillization, Alexa594 FP, 6 h; series mostly up to 57.7 µM; activity, negative = inhibition: at the top concentration; also: nearly all actives have a fitted effect of over 55% in size
Sequence of UniProt P10636 (P10636 whole entry, looked up, the tested form may be a part): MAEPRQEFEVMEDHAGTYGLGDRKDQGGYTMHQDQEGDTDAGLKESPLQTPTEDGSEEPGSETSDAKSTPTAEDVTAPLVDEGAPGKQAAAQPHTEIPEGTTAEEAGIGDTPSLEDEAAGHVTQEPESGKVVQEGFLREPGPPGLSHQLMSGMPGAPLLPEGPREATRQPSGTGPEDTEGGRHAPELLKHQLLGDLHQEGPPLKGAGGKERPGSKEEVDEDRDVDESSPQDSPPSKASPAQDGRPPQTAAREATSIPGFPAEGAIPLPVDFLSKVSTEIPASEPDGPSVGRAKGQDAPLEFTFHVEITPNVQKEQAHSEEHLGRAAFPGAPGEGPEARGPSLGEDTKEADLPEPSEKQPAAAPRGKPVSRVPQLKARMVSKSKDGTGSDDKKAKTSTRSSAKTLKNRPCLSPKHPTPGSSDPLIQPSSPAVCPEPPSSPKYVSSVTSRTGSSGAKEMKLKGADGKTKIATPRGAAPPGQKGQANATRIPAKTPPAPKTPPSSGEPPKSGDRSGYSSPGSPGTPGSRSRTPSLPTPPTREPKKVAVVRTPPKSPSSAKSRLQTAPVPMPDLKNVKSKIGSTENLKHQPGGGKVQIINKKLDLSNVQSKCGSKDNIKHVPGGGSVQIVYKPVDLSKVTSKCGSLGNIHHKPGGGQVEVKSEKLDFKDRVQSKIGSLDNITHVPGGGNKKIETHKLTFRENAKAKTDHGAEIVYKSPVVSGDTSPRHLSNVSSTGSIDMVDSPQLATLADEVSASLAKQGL
Method in brief: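 Human tau K18 […] P301L fragment, 15 uM unlabeled plus 0.24 uM Alexa 594-labeled tau (final), with compound and 20 uM heparin in 100 mM sodium acetate pH 7; 6 hr at 37 C, then Alexa 594 FP read.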
% is scaled to controls: 0 for no effect and ±100 for the full control effect; potency is read from the fitted curve at half-maximal effect; tags tell the direction and shape of the fitted curve.

SMILES	Potency	activity, negative = inhibition
CN(C)S(=O)(=O)c1cccc(NC(=O)CCSc2ccc(Cl)cc2)c1	inconclusive [inhibitor, single point]	–
O=C(COC(=O)c1cncc(Br)c1)NC1CCCCCC1	–	inactive: 3.38%
Cc1ccc(C)c(NC(=O)C(Sc2nc3ccc(C)cc3[nH]2)c2ccccc2)c1 (stereo not drawn)	inconclusive [inhibitor, single point]	–
CCOc1ccc(N2CC(C(=O)Nc3cccc(S(=O)(=O)N4CCCCC4)c3)CC2=O)cc1 (stereo not drawn)	inconclusive [inhibitor, single point]	–
COC1=C(C)C(O)=C(C(=O)/C=C/c2ccccc2)C(=O)C1(C)C	–	inactive: -1.29%
O=C(CC1C(=O)N(c2ccccc2)C(=O)N1CCc1cccs1)Nc1ccc(Cl)cc1 (stereo not drawn)	inconclusive [inhibitor, partial curve]	–
Cc1c(C(=O)Nc2cccc(C(F)(F)F)c2)oc2ccc(S(=O)(=O)N(C)C3CCCCC3)cc12	inconclusive [inhibitor, partial curve]	–
CCNC(=O)c1ccc(-n2c(-c3ccccc3)cc3c2CCCCC3)cc1	active: 11.2 µM	–
COc1cccc(-c2cc(C(=O)Nc3ccc(F)cc3)[nH]n2)c1	inconclusive [inhibitor, partial curve]	–
CCOC(=O)CN1C(=O)C(O)(CC(=O)c2cccc(OC)c2)c2ccccc21 (stereo not drawn)	–	inactive: 1.63%
Cc1ccc2c(N)c(C(=O)N(c3ccccc3)c3ccccc3)sc2n1	inconclusive [activator, single point]	–
Oc1c(Br)cc(C=Nc2ccc3nc(-c4ccccc4)[nH]c3c2)c(O)c1Br	inconclusive [inhibitor, partial curve]	–
C=C(C)C(=O)O[C@H]1C/C(C)=C\C(=O)/C=C(\C)[C@H](O)[C@@H]2OC(=O)C(=C)[C@@H]21	inconclusive [inhibitor, partial curve]	–
COc1cc(NC(=O)CSc2ccc(-c3sc(-c4ccccc4)nc3C)nn2)cc(OC)c1	–	inactive: -12.3%
Cc1ccc(C(=O)NC2(O)C(=O)c3ccccc3C2=O)cc1C	active: 3.98 µM	–
c1ccc(-c2nc(CSc3n[nH]c(-c4cccs4)n3)cs2)cc1	inconclusive [inhibitor, partial curve]	–
COC(=O)c1cccc(NC(=O)Nc2ccc(Cl)cc2)c1	inconclusive [inhibitor, partial curve]	–
CCC(=O)N1c2ccccc2CC1C(=O)NCCc1ccc(OC)cc1OC (stereo not drawn)	inconclusive [inhibitor, single point]	–
